Binding signal data for 22 molecules are collected here from paper PMC12136788.

The list shows a part of the results.

B1: chr15:77046177:77046188:-|3pUTR|ENSG00000140391|msi1_unk|FALSE|overlapping (ssRNA)
RNA: GGGAGUUCUACAGUCCGACGAUCUUAAUCAAAGUUGGCUUUAUAGGAGGAGUAUAAUGUAUGCACUACUGUUUUAAAAGAAUUAGUGUGAGUGUGUUUUUGUAUGAAUGAGCCCAUUCAUGGUAAGUCUUAAGCUUGUUGGAACAACAGAGGAUUGAGCAUCA
B2: chr11:1889147:1890584:-|CDS|ENSG00000283787|control|control|control (ssRNA)
RNA: GGGAGUUCUACAGUCCGACGAUCGCCACCCGGCUUCCAGGCCUCAGUGCCCAGAGAGGCUAGUGCCAGGGUUGUGGUGCCCAUAGCCCCGACCUGCCGCUCGCUGGAGUCCUCACCGCACAGCCUGGUCCCCAUGGGCCCUGGCAACAGAGGAUUGAGCAUCA
B3: chr3:142163631:142163732:-|3pUTR|ENSG00000175066|unk|total|mutant (ssRNA)
RNA: GGGAGUUCUACAGUCCGACGAUCCCCAAAGUGCUGGGAUUGCAGCCGUGAACCACUGCACCCAGCCAAUGGGUGUAAUUUCACCGGAAAUAAUUCUUUUUGUCAGAAUGUACUGAAUUGUAAUAUUAAUACCUGAAAAUUUGUCAACAGAGGAUUGAGCAUCA
B4: chr20:187888:188118:-|CDS|ENSG00000185982|control|control|control (ssRNA)
RNA: GGGAGUUCUACAGUCCGACGAUCCUUCAAUAAAGUAACAGGCUAUUGCAGGAAGAAAUGCAAGGUAGGAGAAAGAUAUGAAAUAGGAUGUCUAAGUGGGAAAUUAUGUUGUGCUAAUGAUGAAGAAGAGAAAAAACAUGUGUCCAACAGAGGAUUGAGCAUCA
B5: chr2:19992051:19993110:-|three_prime_utr|ENSG00000132031|control|control|control (ssRNA)
RNA: GGGAGUUCUACAGUCCGACGAUCAGAAUCAGCAUGAUUCUUCCAAGGAAAUACAUAUGCAGAUACUUAUUAAGAGCAAACUUUAGUGUCUCUAAGUUAUGACUGUGAAAUGAUUGGUAGGAAAUAGAAUGAAAAGUUUAGUGUCAACAGAGGAUUGAGCAUCA
B6: ENSG00000136631:stop:overlap|stop_codon|ENSG00000136631|stop_codon|NA|stop_codon (ssRNA)
RNA: GGGAGUUCUACAGUCCGACGAUCACAAAGGUGUUGGAGAGCAGCUUUGGGUUCUGUGCUGGUUGUUAGAACUCAUCUCCAGGUAGCCCACGGAUACGUGGUUGGCACAGACACAAGACUCCCAGAGUUGUCCUAACAAUAAGUCAACAGAGGAUUGAGCAUCA
B7: ENSG00000107863:be:win_4351|CDS|ENSG00000107863|bound_else_gene|NA|bound_elsewhere_windowed (ssRNA)
RNA: GGGAGUUCUACAGUCCGACGAUCCACAAUGAUACUAAAGAGGAGUCCAAAAAAGAAAGUGAGACACUGGGCAGAAAACAGAAGAUCAUCAUUGCCAAAGAAAACAGCACUAGGAAAGACCCCAGCACGACAAAAGAUGAAAAGCAACAGAGGAUUGAGCAUCA
B8: chr6:350928:351029:+|3pUTR|ENSG00000112679|unk|FALSE|unique (ssRNA)
RNA: GGGAGUUCUACAGUCCGACGAUCCCACAGAGUUUAGGCUGGUGCUGCCAAAAAGAAAAGCAACAUAGAGUUUAAGUAUCCAGUAGUGAUUUGUAAACUUGUUUUUCAUUUGAAGCUGAAUAUAUACGUAGUCAUGUUUAUGUUCAACAGAGGAUUGAGCAUCA
B9: ENSG00000198589:be:win_1201|CDS|ENSG00000198589|bound_else_gene|NA|bound_elsewhere_windowed (ssRNA)
RNA: GGGAGUUCUACAGUCCGACGAUCGCUGAGCAUCACAAACUUUUAUUGUACGAUGGGAAACUCUCUAGUGCCAUUGCAUUCACGUACAAUCCACGGGCUACAGAUGCCCAGCUUUGUCUUGAAUCAUCUCCUAAGGACAACCCUCAACAGAGGAUUGAGCAUCA
B10: chr14:92797766:92797867:+|CDS|ENSG00000066455|msi1|FALSE|unique (ssRNA)
RNA: GGGAGUUCUACAGUCCGACGAUCCAUUUUGUGCGAAGAAAAAAGUCAGAACCUGAUGAUGAGCUGCUGUUUGAUUUUCUUAAUAGUUCACAGAAGGAGCCUACCGGGAGGGUGGAAAUCAGAAAGGAAAAAGGCAAGACACCUCAACAGAGGAUUGAGCAUCA
B11: chr8:38210266:38210373:+|CDS|ENSG00000156735|unk|FALSE|unique (ssRNA)
RNA: GGGAGUUCUACAGUCCGACGAUCAAAAAUCAUACAUGUGCUGGAGAAGGUCCAGUAUCUUGAACAAGAAGUAGAAGAAUUUGUAGGAAAAAAGACAGACAAAGCAUACUGGCUUCUGGAAGAAAUGCUAACCAAGGAACUUUUCAACAGAGGAUUGAGCAUCA
B12: ENSG00000107863:be:win_601|CDS|ENSG00000107863|bound_else_gene|NA|bound_elsewhere_windowed (ssRNA)
RNA: GGGAGUUCUACAGUCCGACGAUCCCAAUCUGCUAUCCCUGGCUGCCAUCUGCCCCAUCAGCCAUGGCACAGCCAGUUGAAAUAUCUCCUCCUGACUCAUCAUUGAGCAAACAGCAAACCAGUACACCAGUACUGACACAACCUCAACAGAGGAUUGAGCAUCA
B13: chr12:107752058:107752159:-|CDS|ENSG00000110851|unk|FALSE|unique (ssRNA)
RNA: GGGAGUUCUACAGUCCGACGAUCUAACUCUAUAAAUGUUGAUGGUAAUACAGCAUUAUCUAUCACCAAUAACCCUUCAGCACUAGAUCCCUAUCAGUCCAAUGGAAAUGUUGGAUUAGAACCAGGCAUUGUUUCAAUAGACUCCAACAGAGGAUUGAGCAUCA
B14: chr12:104348774:104348848:+|3pUTR|ENSG00000198431|msi1_unk|FALSE|overlapping (ssRNA)
RNA: GGGAGUUCUACAGUCCGACGAUCCGUUGUCAAGUUUUCUAGGGUUGAAUUUUUUUCUUUUUUCUCCAUGGUGUUAAUGAUAUUAGAGAUGAAAAACGUUAGCAGUUGAUUUUUGUCCAAAAGCAAGUCAUGGCUAGAGUAUCCCAACAGAGGAUUGAGCAUCA
B15: chr11:75572625:75572772:+|3pUTR|ENSG00000149257|msi1|total|mutant (ssRNA)
RNA: GGGAGUUCUACAGUCCGACGAUCUCUGGCGUUGUGGGGAUGAACUUUUUGUUUUGUUUCUUCCUUUUUCCGUUCUUCAAAGACCGGGAGGGAAGGGGGAACAUGAGCCUUUGUUGCUAUCAAUCCAAGAACUUAUUUGUACAUCAACAGAGGAUUGAGCAUCA
B16: ENSG00000198774:stop:overlap|stop_codon|ENSG00000198774|stop_codon|NA|stop_codon (ssRNA)
RNA: GGGAGUUCUACAGUCCGACGAUCGUUCUAACCACAGUCAGGACUCCGAAACAACAGUAGGAGAUGUGGUGCUGUUGUCAACAUAGUUCCAAUGGCUCCUUUCUGACCUGCUUUCAUGUUUUAAUGUUUGUUUAAUUUAAUAGGCAACAGAGGAUUGAGCAUCA
B17: chr5:132541444:132541810:-|three_prime_utr|ENSG00000113525|control|control|control (ssRNA)
RNA: GGGAGUUCUACAGUCCGACGAUCAAAUUGAUAUACUUUUUUCUUAUUUAACUUAACAUUCUGUAAAAUGUCUGUUAACUUAAUAGUAUUUAUGAAAUGGUUAAGAAUUUGGUAAAUUAGUAUUUAUUUAAUGUUAUGUUGUGUCAACAGAGGAUUGAGCAUCA
B18: chr8:23842113:23842214:-|3pUTR|ENSG00000159167|msi1|total|mutant (ssRNA)
RNA: GGGAGUUCUACAGUCCGACGAUCACUUCCGACAUUUUUGUGCCAUUAUAUUUGCAUUAUGUAUUUAUAAUUUAAAUGAUAUUCCGGUUUUUGGCUGAGUACUGGAAUAAACAGUGAGCAUAUCUGGUAUAUGUCAUUAUUUAUCAACAGAGGAUUGAGCAUCA
B19: chr9:132694550:132694651:+|3pUTR|ENSG00000125484|unk|total|mutant (ssRNA)
RNA: GGGAGUUCUACAGUCCGACGAUCUUCCUGAAGAUUACAUAUCAGUGUCCUGCGUUUUUAUCUAAUAUCCGAGCUGAGGUUCCCCGGAAAAUUUUGAAGUGGGGAAGAUUAUGGAGAAAAUGAAAUGGAAAUUUGGGGAGGGUGCAACAGAGGAUUGAGCAUCA
B20: chr9:15171111:15171212:-|3pUTR|ENSG00000155158|unk|FALSE|unique (ssRNA)
RNA: GGGAGUUCUACAGUCCGACGAUCCUGCUUUAAAUGAUAUGUAAAAUAUCAAUAAUUUUUACACUUAAGAUGUUGGUAAGACCUAGUUUUCUAAUCUCUCUAGCACUGUGAUGUCUCCUUGUAGAUAAUCUGGACCUUGCUUAGCAACAGAGGAUUGAGCAUCA
B21: chr8:10764960:10765785:-|three_prime_utr|ENSG00000254093|control|control|control (ssRNA)
RNA: GGGAGUUCUACAGUCCGACGAUCCCGGGACUUCACCCUGAAGCCCAAAAAGAGGAGAGGGAAGAAAAAGCUGCAAAAACCAGUAGAGAUAGCAGAGGACGCUACACUAGAAGAAACGCUAGUGAAAAAGAAGAAGAAGAAAGACAACAGAGGAUUGAGCAUCA
B22: chr1:225495143:225495244:-|3pUTR|ENSG00000154380|msi1|FALSE|unique (ssRNA)
RNA: GGGAGUUCUACAGUCCGACGAUCACAUUAUUAUGAUGGUUUUUGUGCUCUUGUACGUUGGAUGUCUUAAGCUGAGUACAGUUUAGGGGAUCCUUUCUAAUGACAGGAAGGCACUGCUUUCCUCAACACUGUGAUCUGACCUGUCAACAGAGGAUUGAGCAUCA

The assay has as its target MSI1 full-length (mouse, UniProt Q61474 1-362). As to the kind of experiment: nsRBNS (natural sequence RNA bind-n-seq); RBNS binding buffer (assumed for nsRBNS): 25 mM Tris pH 7.5, 150 mM KCl, 3 mM MgCl2, 0.01% Triton X-100, 500 ug/ml BSA, 20 U/ml SUPERase-In, 4 C; UNK is unkempt and MSI1 is Musashi-1; names of the RNAs are library labels; protein concentration not given here; high values mean tight binding.
Sequence of UniProt Q61474 (Q61474 whole entry): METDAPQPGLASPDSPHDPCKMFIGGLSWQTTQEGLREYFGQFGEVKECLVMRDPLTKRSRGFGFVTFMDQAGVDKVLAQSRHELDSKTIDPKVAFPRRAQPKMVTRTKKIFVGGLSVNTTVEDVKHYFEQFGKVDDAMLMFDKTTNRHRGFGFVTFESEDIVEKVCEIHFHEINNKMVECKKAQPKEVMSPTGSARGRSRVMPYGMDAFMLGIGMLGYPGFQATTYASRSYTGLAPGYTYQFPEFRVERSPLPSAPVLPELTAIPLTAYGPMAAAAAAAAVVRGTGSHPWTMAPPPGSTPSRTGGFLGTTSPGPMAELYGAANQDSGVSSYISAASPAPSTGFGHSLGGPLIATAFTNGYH
On to B1, for which the binding signal worked out at 1.85 enrichment R.
B2 returned a binding signal of 0.566 enrichment R.
With B3, the binding signal was determined as 0.524 enrichment R.
The figure for B4 is 1.31 enrichment R; for B5 it is 4.97 enrichment R; for B6 it is 1.19 enrichment R.
For B7 the value was 0.84 enrichment R; for B8, 4.68 enrichment R.
The figure for B9 is 0.29 enrichment R; for B10 it is 0.533 enrichment R.
In the case of B11, the binding signal stood at 1.57 enrichment R.
The figure for B12 is 0.384 enrichment R; for B13 it is 0.566 enrichment R; for B14 it is 2.02 enrichment R.
B15: the binding signal worked out at 0.28 enrichment R.
For B16 the value was 1.42 enrichment R; for B17, 2.88 enrichment R; for B18, 0.621 enrichment R.
For B19 the value was 0.579 enrichment R; for B20, 1.69 enrichment R; for B21, 0.921 enrichment R.
For B22 the value was 0.214 enrichment R.
